Assay results taken from the supplement of paper PMC4604168 (melanoma cell lines).
The other results are listed elsewhere or left out. Single values are uncertain, as repeats are few or missing.

system: LB2518-MEL; test: cell count relative to DMSO control; melanoma cells; higher = more viable cells; details: library dose: low library concentration; 72 h
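Also: cell number obtained by counting DAPI-stained nuclei in high-throughput microscope images with image analysis software, screen run in 1,536-well plates.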

| Compound | cell count |
| --- | --- |
| NC1(c2ccc(-c3nc4ccn5c(=O)[nH]nc5c4cc3-c3ccccc3)cc2)CCC1 + COC(=O)c1sccc1S(=O)(=O)Nc1ccc(Nc2ccccc2)cc1OC [GSK0660] (first compound 0.4 µM, partner dose 1 µM) | 88.9% |
| CCCS(=O)(=O)Nc1ccc(F)c(C(=O)c2c[nH]c3ncc(Cl)cc23)c1F + O=C(O)C(=O)Nc1sc2c(c1C(=O)O)CCNC2 [TCS401] (first compound 0.08 µM, partner dose 1.66667 µM) | 106% |
| CS(=O)(=O)c1ccc(C(=O)Nc2ccc(Cl)c(-c3ccccn3)c2)c(Cl)c1 [vismodegib] + O=C(O)C(=O)Nc1sc2c(c1C(=O)O)CCNC2 [TCS401] (first compound 1 µM, partner dose 1.66667 µM) | 105% |
| C=C(c1ccc(C(=O)O)cc1)c1cc2c(cc1C)C(C)(C)CCC2(C)C [Bexarotene] + N#Cc1c(O)c2c(-c3ccc(-c4ccccc4O)cc3)csc2[nH]c1=O [A769662] (first compound 2 µM, partner dose 2 µM) | 109% |
| C=C(c1ccc(C(=O)O)cc1)c1cc2c(cc1C)C(C)(C)CCC2(C)C [Bexarotene] + COc1ccc(-c2ccc3c(N4CCOCC4)nc(N4C[C@@H](C)O[C@@H](C)C4)nc3n2)cc1CO [KU0063794] (first compound 2 µM, partner dose 0.02 µM) | 101% |
| CCCS(=O)(=O)Nc1ccc(F)c(C(=O)c2c[nH]c3ncc(Cl)cc23)c1F + COc1ccc(COc2ccc(Cc3cnc(N)nc3N)cc2OC)cc1 [GW2580] (first compound 0.08 µM, partner dose 1 µM) | 137% |

system: LOXIMVI; test: as above; details: library dose: low library concentration; 72 h

| Compound | cell count |
| --- | --- |
| C=C(c1ccc(C(=O)O)cc1)c1cc2c(cc1C)C(C)(C)CCC2(C)C [Bexarotene] + Cn1cc(/C=C2\C(=O)Nc3cccnc32)c2ccccc21 [GW441756] (first compound 2 µM, partner dose 0.4 µM) | 113% |
| NC1(c2ccc(-c3nc4ccn5c(=O)[nH]nc5c4cc3-c3ccccc3)cc2)CCC1 + CC(C)CCN1c2nc(Nc3cc(F)c(O)c(F)c3)ncc2N(C)C(=O)C1C [BID1870] (first compound 0.4 µM, partner dose 0.2 µM) | 115% |
| CS(=O)(=O)c1ccc(C(=O)Nc2ccc(Cl)c(-c3ccccn3)c2)c(Cl)c1 [vismodegib] + N#Cc1c(O)c2c(-c3ccc(-c4ccccc4O)cc3)csc2[nH]c1=O [A769662] (first compound 1 µM, partner dose 2 µM) | 66% |
| CN(c1ncccc1CNc1nc(Nc2ccc3c(c2)CC(=O)N3)ncc1C(F)(F)F)S(C)(=O)=O + COC(=O)c1sccc1S(=O)(=O)Nc1ccc(Nc2ccccc2)cc1OC [GSK0660] (first compound 0.08 µM, partner dose 1 µM) | 101% |
| CCCS(=O)(=O)Nc1ccc(F)c(C(=O)c2c[nH]c3ncc(Cl)cc23)c1F + COC(=O)c1sccc1S(=O)(=O)Nc1ccc(Nc2ccccc2)cc1OC [GSK0660] (first compound 0.08 µM, partner dose 1 µM) | 149% |
| NC1(c2ccc(-c3nc4ccn5c(=O)[nH]nc5c4cc3-c3ccccc3)cc2)CCC1 + COc1cc(N2CCC(N3CCN(C)CC3)CC2)ccc1Nc1ncc(Cl)c(Nc2ccccc2S(=O)(=O)C(C)C)n1 [NVP-TAE684] (first compound 0.4 µM, partner dose 0.08 µM) | 60.5% |
| CS(=O)(=O)c1ccc(C(=O)Nc2ccc(Cl)c(-c3ccccn3)c2)c(Cl)c1 [vismodegib] + CCN(CC)CCCCNc1ncc2cc(-c3cc(OC)cc(OC)c3)c(NC(=O)NC(C)(C)C)nc2n1 [PD173074] (first compound 1 µM, partner dose 0.1 µM) | 125% |
| CCCS(=O)(=O)Nc1ccc(F)c(C(=O)c2c[nH]c3ncc(Cl)cc23)c1F + N#Cc1c(O)c2c(-c3ccc(-c4ccccc4O)cc3)csc2[nH]c1=O [A769662] (first compound 0.08 µM, partner dose 2 µM) | 104% |
| CCCS(=O)(=O)Nc1ccc(F)c(C(=O)c2c[nH]c3ncc(Cl)cc23)c1F + COc1ccc2c(c1)CCC1C2CCC2(C)C(NCCCCCCN3C(=O)C=CC3=O)CCC12 [U73122] (first compound 0.08 µM, partner dose 0.4 µM) | 93.8% |
| CN(c1ncccc1CNc1nc(Nc2ccc3c(c2)CC(=O)N3)ncc1C(F)(F)F)S(C)(=O)=O + O=S(=O)(c1ccccc1)N(CC(F)(F)F)c1ccc(C(O)(C(F)(F)F)C(F)(F)F)cc1 [T0901317] (first compound 0.08 µM, partner dose 1.4 µM) | 75% |
| CCCS(=O)(=O)Nc1ccc(F)c(C(=O)c2c[nH]c3ncc(Cl)cc23)c1F + O=C1NC(=O)/C(=C/c2ccc(-c3ccc(F)cc3O)o2)S1 [AS252424] (first compound 0.08 µM, partner dose 1 µM) | 78.3% |
| NC1(c2ccc(-c3nc4ccn5c(=O)[nH]nc5c4cc3-c3ccccc3)cc2)CCC1 + COc1cc2ncnc(Nc3ccc(Oc4ccccc4)cc3)c2cc1OC [SrcI1] (first compound 0.4 µM, partner dose 2 µM) | 114% |
| C=C(c1ccc(C(=O)O)cc1)c1cc2c(cc1C)C(C)(C)CCC2(C)C [Bexarotene] + COc1cc2ncnc(Nc3ccc(Oc4ccccc4)cc3)c2cc1OC [SrcI1] (first compound 2 µM, partner dose 2 µM) | 124% |
| C=C(c1ccc(C(=O)O)cc1)c1cc2c(cc1C)C(C)(C)CCC2(C)C [Bexarotene] + O=S(=O)(c1ccccc1)N(CC(F)(F)F)c1ccc(C(O)(C(F)(F)F)C(F)(F)F)cc1 [T0901317] (first compound 2 µM, partner dose 1.4 µM) | 149% |
| C=C(c1ccc(C(=O)O)cc1)c1cc2c(cc1C)C(C)(C)CCC2(C)C [Bexarotene] + Oc1cc(-c2nc(-c3ccccc3)[nH]c2-c2ccncc2)ccc1Cl [L779450] (first compound 2 µM, partner dose 0.2 µM) | 161% |
| CN(c1ncccc1CNc1nc(Nc2ccc3c(c2)CC(=O)N3)ncc1C(F)(F)F)S(C)(=O)=O + COc1ccc2c(c1)CCC1C2CCC2(C)C(NCCCCCCN3C(=O)C=CC3=O)CCC12 [U73122] (first compound 0.08 µM, partner dose 0.4 µM) | 83.9% |
| CCCS(=O)(=O)Nc1ccc(F)c(C(=O)c2c[nH]c3ncc(Cl)cc23)c1F + CCCCCCCCCCCC1=C(O)C(=O)C=C(O)C1=O [Embelin] (first compound 0.08 µM, partner dose 1.2 µM) | 112% |
| CN(c1ncccc1CNc1nc(Nc2ccc3c(c2)CC(=O)N3)ncc1C(F)(F)F)S(C)(=O)=O + Oc1nc(-c2ccc(C(F)(F)F)cc2)nc2c1CSCC2 [XAV939] (first compound 0.08 µM, partner dose 2 µM) | 92.7% |
| NC1(c2ccc(-c3nc4ccn5c(=O)[nH]nc5c4cc3-c3ccccc3)cc2)CCC1 + COc1ccc2c(c1)CCC1C2CCC2(C)C(NCCCCCCN3C(=O)C=CC3=O)CCC12 [U73122] (first compound 0.4 µM, partner dose 0.4 µM) | 77.6% |
| C=C(c1ccc(C(=O)O)cc1)c1cc2c(cc1C)C(C)(C)CCC2(C)C [Bexarotene] + O=C1NC(=O)/C(=C/c2ccc(-c3ccc(F)cc3O)o2)S1 [AS252424] (first compound 2 µM, partner dose 1 µM) | 99.9% |
| CN(c1ncccc1CNc1nc(Nc2ccc3c(c2)CC(=O)N3)ncc1C(F)(F)F)S(C)(=O)=O + COc1cc(N2CCC(N3CCN(C)CC3)CC2)ccc1Nc1ncc(Cl)c(Nc2ccccc2S(=O)(=O)C(C)C)n1 [NVP-TAE684] (first compound 0.08 µM, partner dose 0.08 µM) | 72% |
| CN(c1ncccc1CNc1nc(Nc2ccc3c(c2)CC(=O)N3)ncc1C(F)(F)F)S(C)(=O)=O + O=c1cc(-c2cccc3c2Sc2ccccc2S3)oc(N2CCOCC2)c1 [KU55933] (first compound 0.08 µM, partner dose 1 µM) | 177% |
| CN(c1ncccc1CNc1nc(Nc2ccc3c(c2)CC(=O)N3)ncc1C(F)(F)F)S(C)(=O)=O + N#Cc1c(O)c2c(-c3ccc(-c4ccccc4O)cc3)csc2[nH]c1=O [A769662] (first compound 0.08 µM, partner dose 2 µM) | 93.4% |
| CCCS(=O)(=O)Nc1ccc(F)c(C(=O)c2c[nH]c3ncc(Cl)cc23)c1F + Oc1cc(-c2nc(-c3ccccc3)[nH]c2-c2ccncc2)ccc1Cl [L779450] (first compound 0.08 µM, partner dose 0.2 µM) | 161% |
| NC1(c2ccc(-c3nc4ccn5c(=O)[nH]nc5c4cc3-c3ccccc3)cc2)CCC1 + O=C(O)C(=O)Nc1sc2c(c1C(=O)O)CCNC2 [TCS401] (first compound 0.4 µM, partner dose 1.66667 µM) | 87.8% |
| CN(c1ncccc1CNc1nc(Nc2ccc3c(c2)CC(=O)N3)ncc1C(F)(F)F)S(C)(=O)=O + Cn1cc(/C=C2\C(=O)Nc3cccnc32)c2ccccc21 [GW441756] (first compound 0.08 µM, partner dose 0.4 µM) | 94.1% |
| CS(=O)(=O)c1ccc(C(=O)Nc2ccc(Cl)c(-c3ccccn3)c2)c(Cl)c1 [vismodegib] + COc1cc2ncnc(Nc3ccc(Oc4ccccc4)cc3)c2cc1OC [SrcI1] (first compound 1 µM, partner dose 2 µM) | 132% |
